Data published in paper PMC4336329 (PLoS ONE, 2015).
Among all 310,000 compounds or so, about 14,000 (4.5%) showed an effect of 50% or more. The effect is printed as a negative number. The list shows a part of the results.

Each molecule was assayed against human ether-à-go-go-related gene (hERG) potassium channel (human, UniProt Q12809) (assay: primary screen, population patch clamp on CHO cells stably expressing hERG).
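Note: peak tail current of the secondary pulse compared with the same well before compound.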

Chain of human ether-à-go-go-related gene (hERG) potassium channel (Q12809 whole entry, looked up): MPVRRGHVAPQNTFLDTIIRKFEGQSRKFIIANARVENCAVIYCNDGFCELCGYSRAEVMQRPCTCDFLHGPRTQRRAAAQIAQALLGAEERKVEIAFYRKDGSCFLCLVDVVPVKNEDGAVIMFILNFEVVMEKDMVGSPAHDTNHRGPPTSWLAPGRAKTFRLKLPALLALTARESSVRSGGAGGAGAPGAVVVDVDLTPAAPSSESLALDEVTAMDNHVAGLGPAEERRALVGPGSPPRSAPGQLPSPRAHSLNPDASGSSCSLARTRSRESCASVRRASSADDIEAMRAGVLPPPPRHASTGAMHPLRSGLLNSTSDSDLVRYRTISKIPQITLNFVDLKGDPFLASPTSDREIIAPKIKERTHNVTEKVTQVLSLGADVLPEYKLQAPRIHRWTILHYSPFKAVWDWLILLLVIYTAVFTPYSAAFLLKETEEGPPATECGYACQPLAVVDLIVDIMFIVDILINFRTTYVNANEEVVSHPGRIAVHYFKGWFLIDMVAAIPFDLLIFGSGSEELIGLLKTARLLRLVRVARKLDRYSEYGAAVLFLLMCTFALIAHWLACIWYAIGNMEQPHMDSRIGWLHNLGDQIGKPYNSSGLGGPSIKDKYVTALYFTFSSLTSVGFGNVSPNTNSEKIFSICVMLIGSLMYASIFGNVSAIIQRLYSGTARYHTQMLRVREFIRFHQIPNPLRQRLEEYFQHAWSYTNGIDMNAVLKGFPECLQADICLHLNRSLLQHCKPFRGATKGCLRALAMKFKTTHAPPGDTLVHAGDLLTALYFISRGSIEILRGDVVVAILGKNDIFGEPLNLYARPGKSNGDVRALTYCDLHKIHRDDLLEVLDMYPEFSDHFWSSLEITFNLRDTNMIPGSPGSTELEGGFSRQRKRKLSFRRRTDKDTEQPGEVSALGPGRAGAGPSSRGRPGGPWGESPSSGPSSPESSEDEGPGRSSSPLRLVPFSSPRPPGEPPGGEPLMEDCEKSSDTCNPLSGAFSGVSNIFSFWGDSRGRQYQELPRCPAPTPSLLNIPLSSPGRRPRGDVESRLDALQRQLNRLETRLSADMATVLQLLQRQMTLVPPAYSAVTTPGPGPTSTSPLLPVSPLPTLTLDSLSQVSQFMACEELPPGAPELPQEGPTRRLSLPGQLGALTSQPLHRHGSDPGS

| Structure (SMILES) | hERG current change (%, negative = inhibition) at 10uM |
| --- | --- |
| CN(Cc1ccccc1)C(=O)CN(c1ccc(F)cc1)S(=O)(=O)c1ccc2c(c1)OCCO2 | -18.6% |
| O=C(NCCc1nc2ccccc2[nH]1)c1ccc(Br)o1 | 3.87% |
| FC(F)(F)c1ccccc1/C=N/n1c(COc2ccccc2)n[nH]c1=S | 20.9% |
| CCOc1ccc(N(CC(=O)NCc2ccc(F)cc2)C(=O)c2snc(C(N)=O)c2N)cc1 | 6.64% |
| CCN1CCN(c2c(Cl)cccc2NC(=O)c2ccc(Br)o2)CC1 | -73.6% |
| Cn1nc(-c2ccccc2)cc1NC(=O)c1cccs1 | 5.18% |
| CC(=O)Nc1ccccc1OCc1nnc(-c2ccccc2Cl)o1 | 11.5% |
| O=C(NC(=S)Nc1ccccc1N1CCOCC1)c1cccs1 | -1.16% |
| CC(C)n1c(-c2ccccc2F)n[nH]c1=S | 10.6% |
| COC(=O)C1=C(c2ccc(Cl)c(C(F)(F)F)c2)C[C@@H]2CC[C@H]1N2C(=O)NCc1cc(C)oc1C(F)(F)F | 6.92% |
| COc1ccc(CNC2=CC(=O)CC(C)(C)C2)cc1 | -17.9% |
| Cc1c(C)n(CCc2ccccc2)c2ncnc(NCCO)c12 | -12.9% |
| COc1ccc(NC(=O)C2c3cc(OC)c(OC)cc3C(=O)N(C)C2c2cccnc2)cc1OC (centres unmarked) | -6.21% |
| Cc1ccc(CSc2nnc(-c3cccs3)n2C)cc1 | -31.9% |
| O=C(c1ccc(C#Cc2ccccc2)o1)N1CCN(c2ccccn2)CC1 | -6.76% |
| CC(=O)Nc1ccc(S(=O)(=O)N2CCC(C(=O)NCc3cccnc3)CC2)cc1 | 20.3% |
| Cc1cc(C)c(S(=O)(=O)N2CCOC2CNC(=O)C(=O)NCCN(C)C)c(C)c1 (centres unmarked) | 13.1% |
| Cc1cc(=O)[nH]c2ccc(S(=O)(=O)Nc3ccccc3)cc12 | 10% |
| O=C(Cc1ccc(Cl)cc1)NCC(=O)N1CCN(Cc2ccccc2)CC1 | -26.8% |
| Cc1ccc(N/N=C/c2cccnc2)cc1.Cl | -9.59% |
| Cc1cc(OCc2cc(C(=O)N(C)CCCN3CCOCC3)no2)cc(C)c1Cl | -58% |
| O=C1NC(Cc2c[nH]c3ccccc23)C(=O)N1Cc1ccc(CN2C(=O)NC(Cc3c[nH]c4ccccc34)C2=O)cc1 (centres unmarked) | 10.4% |
| Cc1ncc([N+](=O)[O-])n1CC(C)O (centres unmarked) | -1.1% |

| Structure (SMILES) | hERG current change (%, negative = inhibition) at 10uM |
| --- | --- |
| CC(=O)C1=C(C)NC(SCc2ccc(C#N)cc2)=C(C#N)C1c1ccco1 (centres unmarked) | -29.3% |
| C/C(=N/N=C(/N)SCc1ccccc1)C(C)(C)C.Cl | 27.3% |
| CCOC(=O)c1c(NC(=O)CSc2nnc(CNc3ccc(C)cc3C)o2)sc(C)c1C | 11.7% |
| O=C(O)c1ccc(S(=O)(=O)c2ccccc2)cc1 | 11.5% |
| CC1CN(c2nnc(NC(=O)c3ccccc3)s2)CC(C)O1 (centres unmarked) | 32.1% |
| Cn1cnnc1SCC(=O)c1ccc2c(c1)OCCO2 | -0.473% |
| CCNc1ccc(S(N)(=O)=O)cc1[N+](=O)[O-] | 2.57% |
| Cc1nc(SCc2ccccc2)c([N+](=O)[O-])[nH]1 | 16.6% |
| O=C(c1ccc(F)cc1)N1CCN2C(=O)c3ccccc3C12c1ccc(Cl)cc1 (centres unmarked) | -46.6% |
| CC(C)NC(=O)CSc1nncn1-c1ccccc1 | 10.5% |
| CCCC1(CCC)NC(=O)N(CC(=O)c2cc(C)n(-c3ccc4c(c3)OCO4)c2C)C1=O | 5.65% |
| Cc1ccc(CNC(=O)C2CC3Cn4c(nc5ccccc54)C3N2C)o1 (centres unmarked) | -0.36% |
| COc1ccccc1C(=O)Nc1ccc2c(C)cc(=O)oc2c1 | 15.4% |
| CC(COc1ccccc1)N1CCC(CO)(CCc2ccccc2)CC1 (centres unmarked) | -80.3% |
| Cc1ccccc1NC(=O)C1c2cccc[n+]2CC(=O)N1Cc1ccc2c(c1)OCO2.[I-] (centres unmarked) | 12.1% |
| O=C(Cc1ccccc1[N+](=O)[O-])Nc1nccs1 | -16.6% |
| CC(C)NC(=S)N/N=C/c1cccnc1 | 8.57% |
| Nc1ccc(-c2nc3ccccc3o2)cc1 | 18.1% |
| Brc1cc(Br)c2ncnc(N3CCCCC3)c2c1 | -11.8% |
| COC(=O)c1sccc1NC(=O)COc1ccccc1Cl | 12.6% |
| Fc1ccc(COc2ccc(/C=N/n3cnnc3)cc2)cc1 | -30.9% |
| Cc1cc(C)c(S(=O)(=O)N2CCCCC2)c(C)c1N(C)S(=O)(=O)c1ccc(Cl)cc1 | 0.393% |
| CC1CCN(S(=O)(=O)c2ccc3c(c2)NC(=O)CS3)CC1 | -52.2% |

| Structure (SMILES) | hERG current change (%, negative = inhibition) at 10uM |
| --- | --- |
| O=C1NC[C@H](Cc2ccc(O)cc2)N(CC2CCCCC2)C1=O | 17% |
| Cc1c(N=Nc2c(O)n(C)c(=O)n(C)c2=O)c(=O)n(-c2ccccc2)n1C | 8.74% |
| CN(C)CCCN(C(=O)c1ccc(S(=O)(=O)N2CCCCCC2)cc1)c1nc2ccc(Br)cc2s1.Cl | -22% |
| CC1(C)Cc2c(sc3c2c(=O)n(-c2cccc(Cl)c2)c(=O)n3CC(N)=O)CO1 | -5.02% |
| CC(=O)NN=C1CCC(c2ccccc2)CC1 (centres unmarked) | -5.44% |
| O=C(CCC(=O)Nc1ccc(Oc2ccccc2)cc1)NCCO | -4.44% |
| C=C[C@@H]1c2ccccc2N(S(=O)(=O)c2ccc(C)cc2)[C@H](c2ccccc2)C1(C#N)C#N | 23.7% |
| Cc1[nH]nc2c1C1(CCC3(CC1)OCCO3)C(C#N)=C(N)O2 | -0.214% |
| CC(C)Oc1cccc(C(=O)C2CCCN(Cc3cnc(N4CCOCC4)s3)C2)c1 (centres unmarked) | -44.7% |
| CN(C)/C=C/C(=O)c1cnc2sccn2c1=O | 5.24% |
| COc1ccccc1CN1CC(C(=O)N2CCOCC2)CCC1=O (centres unmarked) | -14.6% |
| O=C(CCNS(=O)(=O)c1ccccc1Cl)OCc1nnc(-c2ccccc2Cl)o1 | -25.5% |
| CCn1cc(CN2CCC(C(=O)Nc3ccc(Oc4cccnc4)cc3)CC2)cn1 | -19% |
| COc1ccc(CCNC(=O)C2(C)CCC(=O)N2Cc2ccc3c(c2)OCO3)cc1OC (centres unmarked) | 2.22% |
| CCc1ccc(OCC(=O)Nc2ccc(S(=O)(=O)N3CCCC3)cc2)c(Br)c1 | -4.25% |
| Oc1ccc(/C=N/Nc2nccnc2Cl)c(O)c1 | 0.455% |
| CCOC(=O)c1c(=O)n(O)c2ccc(C)cc2[n+]1[O-] | 26.7% |
| Cc1cccc(C)c1NC(=O)c1cn(-c2ccccc2)nc1-c1ccccc1 | 5.59% |
| Cc1cc(C(=O)NC2CCCc3c2cnn3-c2cccc(C)c2C)n(C)n1 (centres unmarked) | 18.4% |
| Cc1nnc(NS(=O)(=O)c2ccc(N)cc2)s1 | 10.5% |
| O=C(NCc1csc(-c2cccs2)n1)c1ccccc1 | -3.84% |
| CC(=O)c1cccc(NC(=O)CN2C(=S)NC(C)(C)CC2C)c1 (centres unmarked) | 9.76% |
| Cc1cccc(C)c1OCC(=O)Nc1nnc(C2CCCO2)s1 (centres unmarked) | -4.65% |

| Structure (SMILES) | hERG current change (%, negative = inhibition) at 10uM |
| --- | --- |
| COc1cccc(CN(C)C(=O)CSCC(=O)Nc2cc(C)on2)c1OC | 11.6% |
| CCOc1ccc(OCCCCNCCN)cc1.O=C(O)C(=O)O | 5.79% |
| CCCCn1c(SCn2nnc3ccccc3c2=O)nc2cc(S(N)(=O)=O)ccc21 | -34.5% |
| COc1ccccc1NC(=O)/C(C#N)=C/C=C/c1ccco1 | -21.4% |
| O=S(=O)(c1ccccc1)N1CCC(N2CCCCCC2)CC1 | -4.27% |
| Cc1cc(Nc2nnnn2-c2ccccc2)n(-c2ccccc2)n1 | -21.8% |
| Fc1ccc(CNCc2ccccc2C(F)(F)F)cc1 | 12.1% |
| Cc1cccc(N2CCN(C(=O)C3COc4ccccc4O3)CC2)c1C (centres unmarked) | -17.4% |
| CC(C)C[C@H](NC(=O)c1nc[nH]c1C(=O)N1CCN(C(=O)OC(C)(C)C)CC1)C(=O)OC(C)(C)C | -14.2% |
| COc1cccc(C2C(C(=O)c3cccs3)=C(O)C(=O)N2c2cc(C)on2)c1 (centres unmarked) | 10.8% |
| COc1ccccc1N1CCN(C(=S)Nc2cccc(C)c2)CC1 | 3.51% |
| CCCCCCC(=O)Nc1nc(C)c(-c2csc(Nc3cc(Cl)ccc3OC)n2)s1 | 17.2% |
| CCOC(=O)C1=C(c2ccccc2)N(C)C(=O)NC1c1ccc(O)c(OC)c1 (centres unmarked) | -4.21% |
| COc1ccc(/C=N/NC(=O)c2ccc(Br)cc2)c(OC)c1 | -17.7% |
| Nn1c(SCC(=O)Nc2nccs2)nncc1=O | 17% |
| CC(=O)Nc1ccc(NC(=O)c2c(-c3ccccc3Cl)noc2C)cc1 | 5.89% |
| CCOC(=O)c1sc(NC(=O)CSC(=S)N2CCOCC2)nc1C | 9.27% |
| COc1cccc(OC)c1C(=O)Nc1ccccc1C(=O)N1CCCCCC1 | -2.72% |
| Cc1ccc2c(c1C)NC(=O)CC(c1ccccc1O)=N2 | 2.15% |
| CCc1ccc(NC(=O)COC(=O)c2ccc(Cl)c(S(=O)(=O)N3CCCCCC3)c2)cc1 | 10.3% |
